# Experimental data from the supplement of paper PMC8728848.
# The list shows a part of the results.
# B1: CvGal2 (Crassostrea virginica) (protein)
# chain: MGSSHHHHHHSSGLVPRGSHMRIREAGKRKDTTKVYQIPDGLFPGQQVMLRGRVPWGSKSFSINFSATPRMGEGDILFHLNPRPSEGVCIRNALLNGSWGAEEKWQPYFPFDDGRSFSVKIEVTNDAFRTFVNGRPFVDFLHRTDFRAGKYLTLREGAEYYDVIFQSKPNIPLTTAIHNGMRIGKTIRIRGMCTAQDGFAINFNDNRNNIYFHFNARPAQRTVVRNSYFGSWGNEETAISKEFPFYPFLYFYASFVCMEDKFAVYVNDEHFIDFAHRGNPNNISVLQIKGSVNVLDTECLEPMGEDAMTEVDSGLENGDLFVLNGLMTERGKTFAVNFLNGFTENDDIALHFNPRKSTGEVVLNSRYGGAWQSEEKVALPGVFWSNRPLQVKVETKRNKFKIYVNGVDLAKYKIRGNVEDVHAVQVKGDVFLLETLLLKRLMKPVWERLTGGIRPGTWVTLQGTPKKNWQQFVVNFALDDTLDGDIAFHFNVRRGARQVVRNHRQSGAWGREETVTPFFAFDSEATFEIVFFVKEEKFLIYFNGKLFFEFVHRVPVERITHIYMDGDCNFYEPEVVI
# Tests used:
# Assay in all cases: glycan array binding signal (z-score within array); higher = stronger binding
# Settings in all cases: glycan notation: IUPAC condensed, linker removed
# [1] = molecular target: GlcNAc(b1-3)Gal(b1-4)GlcNAc(b1-3)Gal(b1-4)GlcNAc(b1-3)Gal(b1-4)GlcNAc(b1-3)Gal(b1-4)GlcNAc(b1-2)[GlcNAc(b1-3)Gal(b1-4)GlcNAc(b1-3)Gal(b1-4)GlcNAc(b1-3)Gal(b1-4)GlcNAc(b1-3)Gal(b1-4)GlcNAc(b1-6)]Man(a1-6)[GlcNAc(b1-3)Gal(b1-4)GlcNAc(b1-3)Gal(b1-4)GlcNAc(b1-3)Gal(b1-4)GlcNAc(b1-3)Gal(b1-4)GlcNAc(b1-2)Man(a1-3)]Man(b1-4)GlcNAc(b1-4)[Fuc(a1-6)]GlcNAc
# Method in brief: (§1)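 Arrays were curated from the Consortium for Functional Glycomics database, 3228 in total, and kept only where the protein sequence was available. Binding is expressed as a within-array Z-score. This score was averaged across arrays of the same protein sequence at different concentrations or buffers and across linkers, and negative values can be read as non-binding.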
# [2] = molecular target: GlcNAc(b1-3)Gal(b1-4)GlcNAc(b1-3)Gal(b1-4)GlcNAc(b1-3)GalNAc
# Method in brief: as §1
# [3] = molecular target: GlcNAc(b1-3)Gal(b1-4)GlcNAc(b1-3)GalNAc
# Method in brief: as §1
# [4] = molecular target: GlcNAc(b1-3)Gal(b1-4)GlcNAc(b1-3)[GlcNAc(b1-3)Gal(b1-4)GlcNAc(b1-3)]GalNAc
# Method in brief: as §1
# [5] = molecular target: GlcNAc(b1-3)Gal(b1-4)GlcNAc(b1-6)[Gal(b1-3)]GalNAc
# Method in brief: as §1
# [6] = molecular target: GlcNAc(b1-3)Gal(b1-4)GlcNAc(b1-6)[GlcNAc(b1-3)Gal(b1-3)]GalNAc
# Method in brief: as §1
# [7] = molecular target: GlcNAc(b1-3)Gal(b1-4)GlcNAc(b1-6)[GlcNAc(b1-3)]Gal(b1-4)GlcNAc
# Method in brief: as §1
# [8] = molecular target: GlcNAc(b1-3)GalNAc
# Method in brief: as §1
# [9] = molecular target: GlcNAc(b1-3)Man
# Method in brief: as §1
# [10] = molecular target: GlcNAc(b1-3)[GlcNAc(b1-4)][GlcNAc(b1-6)]GlcNAc
# Method in brief: as §1
# [11] = molecular target: GlcNAc(b1-3)[GlcNAc(b1-6)]Gal(b1-4)GlcNAc
# Method in brief: as §1
# [12] = molecular target: GlcNAc(b1-3)[GlcNAc(b1-6)]GalNAc
# Method in brief: as §1
# [13] = molecular target: GlcNAc(b1-4)Gal(b1-4)GlcNAc
# Method in brief: as §1
# [14] = molecular target: GlcNAc(b1-4)GlcNAc
# Method in brief: as §1
# [15] = molecular target: GlcNAc(b1-4)GlcNAc(b1-4)GlcNAc
# Method in brief: as §1
# [16] = molecular target: GlcNAc(b1-4)GlcNAc(b1-4)GlcNAc(b1-4)GlcNAc(b1-4)GlcNAc
# Method in brief: as §1
# [17] = molecular target: GlcNAc(b1-4)GlcNAc(b1-4)GlcNAc(b1-4)GlcNAc(b1-4)GlcNAc(b1-4)GlcNAc
# Method in brief: as §1
# [18] = molecular target: GlcNAc(b1-4)[GlcNAc(b1-6)]GalNAc
# Method in brief: as §1
# [19] = molecular target: GlcNAc(b1-6)Gal(b1-4)GlcNAc
# Method in brief: as §1
# [20] = molecular target: GlcNAc(b1-6)GalNAc
# Method in brief: as §1
# [21] = molecular target: GlcNAc6S(b1-3)Gal(b1-4)GlcNAc
# Method in brief: as §1
# [22] = molecular target: Kdn(a2-3)Gal(b1-3)GalNAc
# Method in brief: as §1
# [23] = molecular target: Kdn(a2-3)Gal(b1-3)GlcNAc
# Method in brief: as §1
# [24] = molecular target: Kdn(a2-3)Gal(b1-4)Glc
# Method in brief: as §1
# [25] = molecular target: Kdn(a2-3)Gal(b1-4)GlcNAc
# Method in brief: as §1
# [26] = molecular target: Kdn(a2-3)Gal(b1-4)[Fuc(a1-3)]GlcNAc
# Method in brief: as §1
# [27] = molecular target: Kdn(a2-6)Gal(b1-4)GlcNAc
# Method in brief: as §1
# [28] = molecular target: Man(a1-2)Man(a1-2)Man(a1-3)Man
# Method in brief: as §1
# [29] = molecular target: Man(a1-2)Man(a1-2)Man(a1-6)[Man(a1-3)]Man
# Method in brief: as §1
# [30] = molecular target: Man(a1-2)Man(a1-3)Man
# Method in brief: as §1
# [31] = molecular target: Man(a1-2)Man(a1-3)[Man(a1-2)Man(a1-6)]Man
# Method in brief: as §1
# [32] = molecular target: Man(a1-2)Man(a1-3)[Man(a1-2)Man(a1-6)]Man(a1-6)[Man(a1-2)Man(a1-2)Man(a1-3)]Man
# Method in brief: as §1
# [33] = molecular target: Man(a1-2)Man(a1-3)[Man(a1-2)Man(a1-6)]Man(a1-6)[Man(a1-2)Man(a1-2)Man(a1-3)]Man(b1-4)GlcNAc(b1-4)GlcNAc
# Method in brief: as §1
# [34] = molecular target: Man(a1-2)Man(a1-3)[Man(a1-6)]Man(a1-6)[Man(a1-2)Man(a1-3)]Man(b1-4)GlcNAc(b1-4)GlcNAc
# Method in brief: as §1
# [35] = molecular target: Man(a1-2)Man(a1-6)[Man(a1-3)]Man(a1-6)[Man(a1-2)Man(a1-2)Man(a1-3)]Man
# Method in brief: as §1
# [36] = molecular target: Man(a1-2)Man(a1-6)[Man(a1-3)]Man(a1-6)[Man(a1-2)Man(a1-2)Man(a1-3)]Man(b1-4)GlcNAc(b1-4)GlcNAc
# Method in brief: as §1
# [37] = molecular target: Man(a1-3)[Man(a1-6)]Man
# Method in brief: as §1
# [38] = molecular target: Man(a1-3)[Man(a1-6)]Man(a1-6)[Man(a1-2)Man(a1-3)]Man(b1-4)GlcNAc(b1-4)GlcNAc
# Method in brief: as §1
# [39] = molecular target: Man(a1-3)[Man(a1-6)]Man(a1-6)[Man(a1-3)]Man
# Method in brief: as §1
# [40] = molecular target: Man(a1-3)[Man(a1-6)]Man(a1-6)[Man(a1-3)]Man(b1-4)GlcNAc(b1-4)GlcNAc
# Method in brief: as §1
# [41] = molecular target: Man(a1-3)[Man(a1-6)]Man(b1-4)GlcNAc(b1-4)GlcNAc
# Method in brief: as §1
# [42] = molecular target: Man(a1-3)[Man(a1-6)]Man(b1-4)GlcNAc(b1-4)[Fuc(a1-6)]GlcNAc
# Method in brief: as §1
# [43] = molecular target: Man(a1-6)Man
# Method in brief: as §1
# [44] = molecular target: Man(b1-4)GlcNAc
# Method in brief: as §1
# [45] = molecular target: MurNAc(b1-4)GlcNAc
# Method in brief: as §1
# [46] = molecular target: Neu5Ac(a2-3)Gal
# Method in brief: as §1
# [47] = molecular target: Neu5Ac(a2-3)Gal(b1-3)GalNAc
# Method in brief: as §1
# [48] = molecular target: Neu5Ac(a2-3)Gal(b1-3)GalNAc(b1-3)Gal(a1-4)Gal(b1-4)Glc
# Method in brief: as §1
# [49] = molecular target: Neu5Ac(a2-3)Gal(b1-3)GalNAc(b1-4)[Neu5Ac(a2-3)]Gal(b1-4)Glc
# Method in brief: as §1
# [50] = molecular target: Neu5Ac(a2-3)Gal(b1-3)GalNAc(b1-4)[Neu5Ac(a2-8)Neu5Ac(a2-3)]Gal(b1-4)Glc
# Method in brief: as §1
# [51] = molecular target: Neu5Ac(a2-3)Gal(b1-3)GalNAc6S
# Method in brief: as §1
# [52] = molecular target: Neu5Ac(a2-3)Gal(b1-3)GlcNAc
# Method in brief: as §1
# [53] = molecular target: Neu5Ac(a2-3)Gal(b1-3)GlcNAc(b1-2)Man
# Method in brief: as §1
# [54] = molecular target: Neu5Ac(a2-3)Gal(b1-3)GlcNAc(b1-2)Man(a1-3)[GlcNAc(b1-4)][Neu5Ac(a2-3)Gal(b1-3)GlcNAc(b1-2)Man(a1-6)]Man(b1-4)GlcNAc(b1-4)GlcNAc
# Method in brief: as §1
# [55] = molecular target: Neu5Ac(a2-3)Gal(b1-3)GlcNAc(b1-2)Man(a1-3)[Neu5Ac(a2-3)Gal(b1-3)GlcNAc(b1-2)Man(a1-6)]Man(b1-4)GlcNAc(b1-4)GlcNAc
# Method in brief: as §1
# [56] = molecular target: Neu5Ac(a2-3)Gal(b1-3)GlcNAc(b1-3)Gal(b1-3)GlcNAc
# Method in brief: as §1
# [57] = molecular target: Neu5Ac(a2-3)Gal(b1-3)GlcNAc(b1-3)Gal(b1-4)GlcNAc
# Method in brief: as §1
# [58] = molecular target: Neu5Ac(a2-3)Gal(b1-3)GlcNAc(b1-3)GalNAc
# Method in brief: as §1
# [59] = molecular target: Neu5Ac(a2-3)Gal(b1-3)GlcNAc(b1-4)Gal(b1-4)Glc
# Method in brief: as §1
# [60] = molecular target: Neu5Ac(a2-3)Gal(b1-3)GlcNAc(b1-6)GalNAc
# Method in brief: as §1
binder,measurement,setting,value
B1,glycan array binding signal (z-score),[1],0.428
same,glycan array binding signal (z-score),[2],-0.34
same,glycan array binding signal (z-score),[3],-0.321
same,glycan array binding signal (z-score),[4],-0.338
same,glycan array binding signal (z-score),[5],-0.333
same,glycan array binding signal (z-score),[6],-0.298
same,glycan array binding signal (z-score),[7],-0.345
same,glycan array binding signal (z-score),[8],-0.316
same,glycan array binding signal (z-score),[9],-0.33
same,glycan array binding signal (z-score),[10],-0.317
same,glycan array binding signal (z-score),[11],-0.33
same,glycan array binding signal (z-score),[12],-0.328
same,glycan array binding signal (z-score),[13],-0.324
same,glycan array binding signal (z-score),[14],-0.329
same,glycan array binding signal (z-score),[15],-0.342
same,glycan array binding signal (z-score),[16],-0.343
same,glycan array binding signal (z-score),[17],-0.345
same,glycan array binding signal (z-score),[18],-0.341
same,glycan array binding signal (z-score),[19],-0.339
same,glycan array binding signal (z-score),[20],-0.335
same,glycan array binding signal (z-score),[21],-0.328
same,glycan array binding signal (z-score),[22],-0.329
same,glycan array binding signal (z-score),[23],-0.33
same,glycan array binding signal (z-score),[24],-0.336
same,glycan array binding signal (z-score),[25],-0.338
same,glycan array binding signal (z-score),[26],-0.339
same,glycan array binding signal (z-score),[27],-0.329
same,glycan array binding signal (z-score),[28],-0.324
same,glycan array binding signal (z-score),[29],-0.338
same,glycan array binding signal (z-score),[30],-0.34
same,glycan array binding signal (z-score),[31],-0.336
same,glycan array binding signal (z-score),[32],-0.338
same,glycan array binding signal (z-score),[33],-0.332
same,glycan array binding signal (z-score),[34],-0.344
same,glycan array binding signal (z-score),[35],-0.343
same,glycan array binding signal (z-score),[36],-0.282
same,glycan array binding signal (z-score),[37],-0.334
same,glycan array binding signal (z-score),[38],-0.332
same,glycan array binding signal (z-score),[39],-0.325
same,glycan array binding signal (z-score),[40],-0.333
same,glycan array binding signal (z-score),[41],-0.336
same,glycan array binding signal (z-score),[42],-0.343
same,glycan array binding signal (z-score),[43],-0.318
same,glycan array binding signal (z-score),[44],-0.333
same,glycan array binding signal (z-score),[45],-0.329
same,glycan array binding signal (z-score),[46],-0.329
same,glycan array binding signal (z-score),[47],-0.335
same,glycan array binding signal (z-score),[48],-0.245
same,glycan array binding signal (z-score),[49],-0.328
same,glycan array binding signal (z-score),[50],-0.333
same,glycan array binding signal (z-score),[51],-0.331
same,glycan array binding signal (z-score),[52],-0.343
same,glycan array binding signal (z-score),[53],-0.347
same,glycan array binding signal (z-score),[54],-0.325
same,glycan array binding signal (z-score),[55],-0.338
same,glycan array binding signal (z-score),[56],0.37
same,glycan array binding signal (z-score),[57],-0.259
same,glycan array binding signal (z-score),[58],-0.331
same,glycan array binding signal (z-score),[59],-0.336
same,glycan array binding signal (z-score),[60],-0.328
